Sequences with one replicate were seen in a single cluster, so their values are uncertain.
system: ATP; assay: switch fluorescence ratio, 500 uM ATP over buffer (Cy3 cluster intensity, sum of 5 cycles each) (fold (ratio)); higher = stronger signal-on switching upon ATP binding; sequences stand for … in TCGTCGGCAGCGTCAGATGTGTATAAGAGACAGTTTTTTTTTTTTTTTTTTTTTTTTT…TC; settings: aptamer strand: ATP DNA aptamer (quencher-CACCTGGGGGAGTATTGCGGAGGAAGG + anchor), 100 nM annealed; ATP concentration: 500 uM; one replicate
Outline: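 Per cluster, summed Cy3 intensity from the target cycles was divided by that from the buffer cycles to give the fluorescence ratio, then averaged per switch-domain sequence. Clusters outside 100-1000 RFU were excluded. The Cy3-labelled switching-strand clusters, on a modified Illumina MiSeq flow-cell, were annealed to 100 nM quencher-labelled ATP aptamer and imaged in selection buffer, then after 15 min with 500 uM ATP at 22 °C, for five cycles with NaOH stripping and re-annealing between them.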
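Also: ATP exposure 15 min at 22 °C before imaging.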

Sequence	switch fluorescence ratio
ACTCTTTAAC	1
ACTGAACGCC	1.39
ACTGAACGGG	1.4
ACTGAACGTC	1.26
ACTGAAGTGG	1.05
ACTGAATTTT	1.02
ACTGACAGAG	0.951
ACTGACTGA	1.18
ACTGACTGCA	1.34
ACTGAGTTTT	1.03
ACTGATATGT	1.02
ACTGCAGGGG	1.07
ACTGCATCAT	1.1
ACTGCGACCC	1.26
ACTGCGCGGA	1.23
ACTGCGGTCC	1.06
ACTGGAGATA	1.01
ACTGGAGTAA	0.892
ACTGGATCCG	1.26
ACTGGCAGAC	1.49
ACTGGCTCGT	1
ACTGGGCTAT	1.04
ACTGGGGCTT	1.06
ACTGGGGTGC	1.06
ACTGGTAAA	0.993
ACTGGTACCT	1.16

Sequence	switch fluorescence ratio
ACTGGTCCGT	1.04
ACTGTAAAGA	1.06
ACTGTAATCG	1.11
ACTGTAGTA	1.08
ACTGTCTGC	0.993
ACTGTGCTCG	1.06
ACTGTGGGCC	0.982
ACTGTGGTGC	1.03
ACTTAAGGCC	1.09
ACTTAATTA	1.04
ACTTAGTCAC	1.09
ACTTAGTTT	1.01
ACTTATGGTG	0.975
ACTTATTGCG	0.938
ACTTCAATGG	0.992
ACTTCCTTTG	1.7
ACTTCTCTTC	1.04
ACTTCTGGT	0.96
ACTTGAAAGT	1.02
ACTTGAACCT	1.84
ACTTGAACGA	1.06
ACTTGAATGG	0.997
ACTTGACAAT	1.14
ACTTGATGAG	1.02
ACTTGCGGCC	1.05
ACTTGTGTCC	0.997

Sequence	switch fluorescence ratio
ACTTTAAGAT	1.04
ACTTTAGCTC	1.15
ACTTTCATTT	1.04
ACTTTCCCTT	1.25
ACTTTGAACA	0.995
ACTTTGGGAA	1.02
ACTTTGTCGT	0.95
ACTTTGTGCA	0.967
ACTTTGTTAA	0.952
ACTTTTCTGC	1.03
AGAAAACCGG	1.03
AGAAACATGC	1.06
AGAAACCCGC	1.04
AGAAACTAAA	0.952
AGAAACTGGG	0.979
AGAAAGGGTA	0.956
AGAAAGTTCC	1.21
AGAAATAGTC	1.13
AGAAATCAAC	1.01
AGAACAGAAA	1.01
AGAACCAAAA	0.983
AGAACCTACA	1.25
AGAACTCATG	0.957
AGAACTTACG	1.21
AGAAGAACTA	1.03
AGAAGACTCC	1.23

Sequence	switch fluorescence ratio
AGAAGCATG	1.02
AGAAGCGGTG	1.01
AGAAGCGTAT	1.06
AGAAGCTTCT	0.985
AGAAGGAAGG	1.03
AGAAGTTTGA	1.06
AGAATAAAAG	1.04
AGAATACAGC	1.01
AGAATCAGGG	1.02
AGAATGTATT	1.01
AGAATGTGCG	0.993
AGAATTAAAG	0.934
AGAATTAACG	0.932
AGAATTCCGA	1.01
AGACACGTTT	0.972
AGACACTCAT	1.04
AGACAGCACT	1.23
AGACATCCG	1.08
AGACATTTTT	1
AGACCAAGCG	0.906
AGACCACCTA	1.16
AGACCATTCA	1.05
AGACCCCAG	0.928
